# From PubChem BioAssay AID588855 (National Center for Advancing Translational Sciences (NCATS), 2011)
# Hit rate of the full screen: of about 410,000 compounds, about 5,000 (1.2%) were called active. Inconclusive means that the source gave no clear call. Such entries were picked first, then a sample of the others. Calls come from the whole dose curve; as a rule, active = well fitted inhibition curve with a large enough effect; inconclusive = small, poorly fitted or top-dose-only effect; inactive = no such curve, though single readings can be large or run the other way. Potencies of inconclusive entries are doubtful fits and often do not repeat.
# Experiment: qHTS for Inhibitors of TGF-b; note: nearly all actives have a fitted effect of over 65% in size
# Details: HepG2 CAGA-GFP TGF-b/SMAD3 reporter, GFP fluorescence, 18 h, TGF-beta stimulated, 500 pg/mL final; series mostly up to 46.1 µM; activity, negative = inhibition: at the top concentration
# Outline: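 HEPG2 CAGA-GFP, 1000 cells/well; 2 h settle, 37 C; cpd via pin tool; TGF-b 500 pg/mL final; 18 h, 37 C; GFP imaging ex488/em500-530; %Activity normalised to -TGF-b and +DMSO controls; CRC fit, curve class.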
# % is set by controls: 0 for no effect and ±100 for the full control effect; potency is the fitted concentration of half-maximal effect; tags give direction and shape of the fitted curve.
SMILES,"activity, negative = inhibition",Potency
Cc1ccc(-n2c(SCC(=O)N3CC(=O)Nc4ccccc43)nc3ccccc3c2=O)cc1,inactive: 1.35%,–
CN(c1ccccc1)S(=O)(=O)c1ccc(NC(=O)c2ccccc2)cc1,–,"inconclusive: 35.5 µM [inhibitor, single point]"
Nc1ncnc2c1c(-c1ccc(Oc3ccccc3)cc1)cn2C1CCCC1,–,active: 22.4 µM
COc1ccc(-c2nc3ccccc3nc2-c2ccccc2)cc1,–,"inconclusive: 3.16 µM [inhibitor, partial curve, poor fit]"
CCOC(=O)C1=C[C@@H](CC)N(S(=O)(=O)c2ccc(C)cc2)[C@H]1c1cccs1,–,"inconclusive: 5.62 µM [inhibitor, partial curve, poor fit]"
COc1ccc(NC(=O)CCN2CCN(S(=O)(=O)c3ccc(C(C)C)cc3)CC2)cc1,–,"inconclusive: 5.62 µM [inhibitor, full curve, poor fit]"
O=C(O)c1ccccc1/C=N/NC(=O)C1CCCC1,inactive: -1.65%,–
NC(=O)CC(NC(=O)c1cccc(Br)c1)c1ccc(NCC2CC2)c([N+](=O)[O-])c1 (configuration not stated),–,"inconclusive: 10 µM [inhibitor, partial curve, poor fit]"
CCN(CC)S(=O)(=O)c1ccc(N2CCCC2)c(NC(=O)Cc2c(F)cccc2Cl)c1,inactive: 10.5%,–
CC(NC(=O)C12CC3CC(CC(C3)C1)C2)C(=O)NN=Cc1ccc([N+](=O)[O-])o1 (configuration not stated),–,"inconclusive: 35.5 µM [inhibitor, single point]"
COc1ccc(NC(=O)CSc2ccc(-c3sc(C)nc3C)nn2)cc1,inactive: -13.5%,–
O=C(CN(C(=O)c1cc2c(s1)CCC2)C1CCCC1)NCc1cccs1,inactive: -26.7%,–
COc1ccccc1C1NC(c2ccc3c(c2)OCO3)=CC(c2cc(Br)ccc2O)N1 (configuration not stated),–,"inconclusive: 35.5 µM [inhibitor, single point]"
CCOc1ccccc1NC(=O)C1CCCN(S(=O)(=O)c2ccc(OC)c(C)c2)C1 (configuration not stated),–,"inconclusive: 22.4 µM [inhibitor, single point]"
COc1cccc(C2/C(=C(/O)c3ccc4c(c3)CC(C)O4)C(=O)C(=O)N2CC2CCCO2)c1 (configuration not stated),–,"inconclusive: 35.5 µM [inhibitor, single point]"
CCOC(=O)c1c(C)[nH]c(C)c1C(=O)COC(=O)c1cc2ccccc2cc1O,–,"inconclusive: 35.5 µM [inhibitor, partial curve, poor fit]"
Cc1ccc(-c2ccc(S(=O)(=O)N3CCN(C)CC3)cc2)cc1,–,"inconclusive: 35.5 µM [inhibitor, single point]"
O=C(O)[C@@H]1CCCN1c1ncnc2sc3c(c12)CCC3,–,"inconclusive: 5.62 µM [inhibitor, single point]"
Cc1cccc(-c2noc(CN(C(=O)c3ccc(C)c(C)c3)C(C)C)n2)c1,–,"inconclusive: 35.5 µM [inhibitor, single point]"
CC(C)Oc1ccc(CCc2n[nH]c(=S)n2Cc2ccccc2)cc1,–,"inconclusive: 17.8 µM [inhibitor, single point]"
COc1ccc(-c2ccc(=O)n(Cc3c(F)cccc3Cl)n2)cc1,–,"inconclusive: 22.4 µM [inhibitor, single point]"
Cc1csc2nc(-c3cccc(NC(=O)c4cccc(F)c4)c3)cn12,–,"inconclusive: 11.2 µM [inhibitor, partial curve, poor fit]"
CSc1ccccc1NC(=O)CN1CCN(S(=O)(=O)c2ccccc2[N+](=O)[O-])CC1,–,"inconclusive: 35.5 µM [inhibitor, single point]"

SMILES,"activity, negative = inhibition",Potency
COC(=O)c1ccccc1NC(=O)CN(c1ccccc1)S(=O)(=O)N(C)C,inactive: -5.14%,–
CCCCN(C)CCNC(=O)Cn1ncc2c3ccccc3n(CCC)c2c1=O,–,"inconclusive: 31.6 µM [inhibitor, single point]"
Cc1cc(Oc2ccccc2F)nc(NCc2ccccc2)n1,inactive: -1.35%,–
COc1ccccc1-n1cnc2c(c1=O)c1nc3ccccc3nc1n2CCc1ccccc1,inactive: 25.6%,–
COc1ccccc1N1CCN(Cc2ccc(OC)c(OC)c2OC)CC1,inactive: -13.8%,–
C[C@H](CO)N1C[C@H](C)[C@@H](CN(C)C(=O)Nc2ccc3c(c2)OCO3)Oc2c(NC(=O)Nc3ccc4c(c3)OCO4)cccc2C1=O,–,"inconclusive: 4.47 µM [inhibitor, single point]"
COc1ccc(NC(=O)NNC(=O)COc2ccc([N+](=O)[O-])c(C)c2)cc1OC,inactive: -1.98%,–
c1csc(-c2nc3c4ccccc4c4ccccc4c3[nH]2)c1,–,"inconclusive: 6.31 µM [inhibitor, partial curve, poor fit]"
CC(Oc1ccccc1)C(=O)N1CCC2(CC1)Oc1ccc(F)cc1C(=O)C21CC(c2ccc(Cl)cc2)=NO1 (configuration not stated),–,"inconclusive: 3.16 µM [inhibitor, single point]"
CCc1ccc(OCC(=O)NC(NC(=S)Nc2ccccc2OC)C(Cl)(Cl)Cl)cc1 (configuration not stated),–,"inconclusive: 35.5 µM [inhibitor, single point]"
COc1ccc(Cl)cc1NC(=O)C/C(C)=N/NC(=O)c1ccc(O)cc1,–,"inconclusive: 28.2 µM [inhibitor, single point]"
CCOC(=O)N1CCC(N(CCN(C)C)C(=S)Nc2cc(Cl)cc(Cl)c2)CC1,inactive: -3.81%,–
O=C(CSc1nnc(CNc2ccccc2)o1)N1CCc2ccccc21,inactive: 2.27%,–
NC1=NC(=O)/C(=C/c2ccc(-c3ccc(S(N)(=O)=O)cc3)o2)S1,–,"inconclusive: 35.5 µM [inhibitor, single point]"
COC1=C(NCc2ccc3c(c2)OCO3)C(=O)C(OC)=C(NCc2ccc3c(c2)OCO3)C1=O,inactive: 7.64%,–
CC(=O)N(c1ccccc1)c1nc(/C=C/C(=O)Nc2c(C)cc(C)cc2C)cs1,–,"inconclusive: 15.8 µM [inhibitor, single point]"
C[C@@]12C(=O)Nc3ccc(F)cc3C(=O)N1[C@H]1c3cc(Cl)ccc3OC[C@@H]1[C@@H]2c1ccccc1,–,"inconclusive: 35.5 µM [inhibitor, single point]"
COc1ccc(C2CC(c3ccc4ccccc4c3OC(C)=O)=NN2C(C)=O)cc1 (configuration not stated),–,"inconclusive: 35.5 µM [inhibitor, single point]"
CC(C)c1ccc(OCC(=O)NC2CC(C)(C)NC(C)(C)C2)c(Br)c1,–,"inconclusive: 14.1 µM [inhibitor, single point]"
COc1cc(C(=O)NCCOc2cc(C)ccc2C(C)C)cc(OC)c1OC,–,"inconclusive: 3.98 µM [inhibitor, full curve, poor fit]"
CCOC(=O)Cn1c(=O)oc2cc(S(=O)(=O)NCc3ccc(F)cc3)ccc21,–,"inconclusive: 25.1 µM [inhibitor, single point]"
Cc1ccccc1-n1nc(C)c2cc(C(=O)NCc3cccnc3)sc21,inactive: -14.4%,–
O=C(NNS(=O)(=O)c1ccccc1[N+](=O)[O-])c1ccc(O)cc1,–,"inconclusive: 35.5 µM [inhibitor, single point]"

SMILES,"activity, negative = inhibition",Potency
Cc1noc(NS(=O)(=O)c2ccc(NC(=O)c3ccc(N4C(=O)c5ccccc5C4=O)cc3)cc2)c1C,–,"inconclusive: 35.5 µM [inhibitor, single point]"
COc1ccc(NC(=S)N2CCC(C(=O)c3ccc(Cl)cc3)CC2)cc1,inactive: -4.32%,–
CC1CCC(NC(=O)C2COc3ccccc3O2)CC1 (configuration not stated),–,"inconclusive: 6.31 µM [inhibitor, single point]"
O=C(C[n+]1ccc2ccccc2c1)Nc1cc(C(F)(F)F)ccc1Cl,inactive: 19.7%,–
CC1CCCCN1CCNC(=O)c1ccc2c(=O)n(CCc3ccccc3)c(=O)[nH]c2c1 (configuration not stated),inactive: -18.7%,–
CCn1c(C)nc2c1C(=O)c1ccccc1C2=O,–,"inconclusive: 11.2 µM [inhibitor, single point]"
CCOc1ccc(-c2cc(CCCC(=O)Nc3cccc(OC)c3)no2)cc1,inactive: -15%,–
CC(C)(CNC(=O)c1ccc(S(=O)(=O)Nc2ccc(Cl)cc2)cc1)N1CCOCC1,inactive: -1.61%,–
N#Cc1c(-c2ccc(F)cc2)nc(-c2ccccc2)[nH]c1=O,–,"inconclusive: 35.5 µM [inhibitor, single point]"
COC(=O)c1ccccc1NC1=C/C(=N\S(=O)(=O)c2ccc(C(=O)O)cc2)c2ccccc2C1=O,–,active: 8.91 µM
CCCN1C(=O)c2ccccc2NC1c1ccc(OC)c(COc2ccc([N+](=O)[O-])cc2)c1 (configuration not stated),inactive: -8.52%,–
Cc1cc(C)c(S(=O)(=O)N2CCCCC2)c(C)c1N(C)S(=O)(=O)c1ccccc1,–,"inconclusive: 22.4 µM [inhibitor, single point]"
Brc1cccc2sc(N3CCN(c4ccccc4)CC3)nc12,–,"inconclusive: 15.8 µM [inhibitor, single point]"
N#Cc1nc(COc2ccc(Cl)cc2)oc1N1CCCCCC1,inactive: 0.142%,–
CCOc1ccccc1Nc1ncccc1C(=O)N1CCCC1,–,"inconclusive: 3.98 µM [inhibitor, full curve, poor fit]"
S=c1[nH]nc(-c2ccc(Br)cc2)n1-c1ccc2c(c1)OCCO2,inactive: -1.02%,–
COc1ccc(-c2cc(-c3ccccc3)nc(SC(C)C(=O)O)c2C#N)cc1 (configuration not stated),inactive: -13%,–
CN(C)c1ccc(CN(C(=O)COc2ccc(F)cc2)C2CCS(=O)(=O)C2)cc1 (configuration not stated),–,"inconclusive: 35.5 µM [inhibitor, single point]"
Cc1cccc(N(CC(=O)NC(C)c2ccccc2)S(=O)(=O)c2ccccc2)c1C (configuration not stated),–,"inconclusive: 35.5 µM [inhibitor, partial curve, poor fit]"
Cc1cccc(S(=O)C(c2ccccc2)c2ccccc2)c1 (configuration not stated),inactive: -0.663%,–
Cc1ccc(-n2sc3ccccc3c2=O)cc1S(=O)(=O)N1CCCCC1,–,"inconclusive: 11.2 µM [inhibitor, partial curve, poor fit]"
